This passage reports survival results from PubChem BioAssay AID463173 (ICCB-Longwood Screening Facility, Harvard Medical School, 2010).

The whole screen tested about 52,000 compounds, of which about 4,300 (8.3%) were called active. Rule as the data show it: active = survival mostly below about 52% (no sharp cut-off); inactive = mostly above about 56%. This is one part of the list.

For this assay, the system named is DeltatarO mutant. Nature of the assay: S. aureus survival, RN4220 and DeltatarO strains – OD600, teichoic acid synthesis inhibitors, primary screen (AID 463173). Conditions: S. aureus RN4220 wild type/DeltatarO growth, OD600, 18 h, stronger effect = lower value, screened at 18.75 µg/mL (by protocol).
For the compound `O=C(NCc1ccc(Cl)cc1)C1CCN(S(=O)(=O)c2ccccc2)CC1`, the survival is inactive: 131%.
`COc1ccc(N(C(=O)c2ccccc2)S(=O)(=O)c2ccc3c(c2)n(C)c(=O)n3C)cc1`: the survival was inactive: 89%.
Turning to `Cc1ccc(-n2c(=O)c3c(C)c(C)sc3n(Cc3ccc(F)cc3Cl)c2=O)cc1C`, the survival was active: 38%.
Take `CN(C(=O)c1cc2nc(-c3ccco3)cc(C(F)(F)F)n2n1)C12CC3CC(CC(C3)C1)C2`: the survival is inactive: 110%.
For the compound `COc1ccc(CCNC(=O)Cc2c(C)c3cc4c(C)coc4cc3oc2=O)cc1OC`, the survival is inactive: 89%.
For the compound `Oc1ccc(-c2nc3ccc(Cl)cn3c2Nc2ccc3c(c2)OCO3)cc1`, the survival is inactive: 106%.
Regarding `CCOc1ccc(C2C(=O)N(C3CCCCC3)CC(=O)N2CCc2ccccc2)cc1OC` (stereo unspecified), the survival is inactive: 86%.
In the case of `CC1CCN(C(=O)C(C)NCc2ccc(F)cc2)CC1` (stereo unspecified), the survival is inactive: 98%.
With `CC(NC(=O)c1ccc(F)cc1)c1nc2ccccc2[nH]1` (stereo unspecified), the survival was inactive: 83%.
Then `CCc1ccc(NC(=O)Cn2c(=O)n(-c3cc(OC)c(OC)c(OC)c3)c(=O)c3ccccc32)cc1`, with inactive: 72%.
As for `Cc1cc(C(=O)C(=O)Nc2nncs2)c(C)n1-c1ccc(Cl)cc1`, the survival is inactive: 83%.
As to `COc1ccccc1NC(=O)c1cn(-c2ccccc2)nc1-c1ccccc1`, the survival was inactive: 95%.
With `Cc1cccc(N2CCN(C(=O)c3noc4c3CCCCC4)CC2)c1C`, the survival is inactive: 107%.
For `N#Cc1nc(/C=C/c2ccc(F)cc2)oc1NCc1ccc(F)cc1`, the survival is inactive: 72%.
As to `COc1ccc(N2CCN(C(=O)CNS(=O)(=O)c3ccc(Br)s3)CC2)cc1`, the survival is active: 32%.
Turning to `O=C(c1ccc2c(c1)N(Cc1cccc(Cl)c1)C(=O)c1ccccc1S2=O)N1CCN(c2cccc(C(F)(F)F)c2)CC1` (stereo unspecified), the survival is inactive: 92%.
Consider `O=C(N=Nc1[nH]c2ccccc2c1O)c1ccc(Cl)cc1`, for which the survival is inactive: 85%.
Regarding `Cc1ccc(N(C)C(=O)CN2C(=O)CCc3cc(S(=O)(=O)N4CCOCC4)ccc32)cc1`, the survival is inactive: 67%.
For the compound `COc1ccccc1CNC(=O)CCn1cnc2ccccc2c1=O`, the survival is active: -5%.
On to `O=C(NC1CC(=O)N(c2ccc(F)cc2)C1)c1ccc2c(c1)OCO2` (stereo unspecified), for which the survival is inactive: 75%.
In the case of `O=C(Cn1c(=O)n2nc(-c3cccc(F)c3)nc2c2ccccc21)N1CCN(c2ccc(F)cc2)CC1` it was inactive: 90%; in that of `Cn1c(=O)c2c(ncn2Cc2ccc(Cl)cc2)n(C)c1=O`, inactive: 63%; in that of `CCN1CCN(C(c2ccccc2Cl)c2c(O)cc(C)n(Cc3ccco3)c2=O)CC1` (stereo unspecified), inactive: 101%.
As to `CCN(c1ccccc1)c1nnc(NC(=O)Nc2ccc(Br)c(C)c2)s1`, the survival is inactive: 89%.
On to `O=C(c1ccc2c(Cl)c3c(nc2c1)CCCC3)N1CCN(c2cccc(C(F)(F)F)c2)CC1`, for which the survival was inactive: 64%.
With `O=C(CSc1nccn1Cc1ccco1)Nc1cc(C(F)(F)F)ccc1Cl`, the survival was inactive: 99%.
`COc1cc(S(=O)(=O)N(CCc2ccccc2)Cc2cccs2)ccc1-n1cnnn1`: the survival was inactive: 91%.
Then `O=C(CN1C(=O)COc2ccc(S(=O)(=O)N3CCCCCC3)cc21)N1CCN(c2ccccc2F)CC1`, with inactive: 81%; and `CCOc1ccc(CNC(=O)CCS(=O)(=O)c2cc3c4c(c2)CCN4C(=O)CC3)cc1OC`, with inactive: 82%; and `O=C(CNC(=O)c1ccc(F)cc1)OCc1cc(=O)n2nc(C3CCCCC3)sc2n1`, with inactive: 80%.
For the compound `CCOc1cc(CNC(=O)c2ccc3c(c2)N(C)C(=O)C2CCCCN32)ccc1OC` (stereo unspecified), the survival is inactive: 69%.
Consider `CCOc1ccccc1C(=O)NCc1nc2cccnc2n1Cc1ccc(C)cc1`, for which the survival is inactive: 119%.
Regarding `COc1ccc(NC(=O)C2C3C=CC(O3)C2C(=O)NCc2cccnc2)cc1` (stereo unspecified), the survival was inactive: 80%.
`Cc1ccc(-n2ncc3c(NC4CCCCC4)ncnc32)cc1Cl`: the survival is inactive: 84%.
Then `Cc1ccc(N2CCN(C(=O)c3cnn(-c4ccc(C)c(C)c4)c3C3CCNCC3)CC2)c(C)c1`, with inactive: 55%; and `COc1ccc(CNC(=O)CCCn2nc(C)c3c(C)n(-c4ccc(C)cc4)nc3c2=O)cc1OC`, with inactive: 74%.
Consider `CCc1ccc(Nc2sc(C(=O)c3ccc(F)cc3)c(N)c2S(=O)(=O)c2ccccc2)cc1`, for which the survival was inactive: 94%.
For the compound `Nc1nnc(SCC(=O)NC2CCCCC2)s1`, the survival was inactive: 88%.
In the case of `Nc1c(C(=O)NCc2ccc(Cl)cc2)sc2nc(-c3ccc(F)cc3)ccc12` it was inactive: 69%.
Consider `COc1ccc(NCc2nnc(SCC(=O)c3ccc(C)cc3)o2)cc1`, for which the survival is inactive: 85%.
On to `COc1ccc(OC)c(NC(=O)CCNS(=O)(=O)c2ccc3c(c2)oc(=O)n3C)c1`, for which the survival was inactive: 83%.
In the case of `COc1ccc2nc(NC(=O)c3cc(=O)c4cc(C)cc(C)c4o3)sc2c1` it was inactive: 69%; in that of `COc1cc(OC)c(NC(=O)C2CCN(S(=O)(=O)c3ccc4c(c3)oc(=O)n4C)CC2)cc1Cl`, inactive: 99%.
Regarding `COc1ccc2c(CNCCc3cccs3)c(C(=O)O)n(Cc3cccc(F)c3)c2c1`, the survival is inactive: 76%.
In the case of `CC(C)C(=O)N1CCC(c2nc(-c3ccc(F)cc3)no2)CC1` it was inactive: 105%; in that of `COc1ccc(CCNC(=O)c2cc3c(=O)oc4ccc(C)cc4c3s2)cc1OC`, inactive: 60%; in that of `COc1ccc(CC(=O)NC2CCN(CC(=O)c3ccc(F)cc3)CC2)cc1OC`, inactive: 108%.
Take `CCNC(=O)c1cc2n(n1)CCCN(Cc1ccc(C)cc1)C2=O`: the survival was inactive: 49%.
With `O=C(C1CCN(c2ncnc3c2nc2n3CCCCC2)CC1)N1CCN(c2ccc(Cl)cc2)CC1`, the survival is inactive: 81%.
Turning to `Cc1nn(C(=O)c2cccc(F)c2)c(C)c1S(=O)(=O)N1CCOCC1`, the survival was inactive: 84%.
With `Cc1ccc2c(c1)c1c3n2CCN(C(=O)c2ccc(C(F)(F)F)cc2)C3CCC1` (stereo unspecified), the survival is inactive: 44%.
In the case of `Cc1ccccc1-c1nnc(N(C)C(=O)C2CC2)s1`, the survival was inactive: 64%.
Take `CC1=C(C(=O)OCc2ccc(C)cc2)C(c2cccc(F)c2F)CC(=O)N1` (stereo unspecified): the survival was inactive: 93%.
In the case of `CC(=O)c1cccc(NC(=O)Cn2nc(C(F)(F)F)c3c2CCC3)c1` it was inactive: 84%; in that of `CC(C)C(=O)Nc1ccc(-c2cn3ccccc3n2)cc1`, inactive: 76%; in that of `NC(=O)c1nn2c(C(F)(F)F)cc(-c3ccc(Br)cc3)nc2c1Cl`, inactive: 81%.
